The BET-seq Pho4 binding data (Le et al. 2018)
This is one part of the list. Values were computed here from the reads of four pooled replicates and scatter widely.

These sequences were tested against T1, Pho4 (S. cerevisiae) (UniProt P07270) (assay: relative binding free energy (BET-seq); higher = weaker binding). Conditions: reference: library average.
T1 sequence: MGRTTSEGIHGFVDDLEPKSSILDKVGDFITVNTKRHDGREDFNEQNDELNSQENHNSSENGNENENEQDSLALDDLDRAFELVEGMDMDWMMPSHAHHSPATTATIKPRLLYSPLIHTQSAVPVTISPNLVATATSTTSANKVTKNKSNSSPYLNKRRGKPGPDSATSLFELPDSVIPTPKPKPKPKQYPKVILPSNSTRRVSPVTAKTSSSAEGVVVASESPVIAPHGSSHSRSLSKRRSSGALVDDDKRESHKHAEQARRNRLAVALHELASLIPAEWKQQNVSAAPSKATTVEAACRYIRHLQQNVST

Sequence	relative binding free energy
TTAGGCACGTGCGTGA	-0.17 kcal/mol
AGCGACACGTGGATGG	0.08 kcal/mol
TAAAACACGTGGTTTT	0 kcal/mol
TGTCACACGTGGATAT	0.06 kcal/mol
TCGTACACGTGGTTTA	-0.03 kcal/mol
TGTAACACGTGTCGAT	0.09 kcal/mol
AGAAGCACGTGGTGGA	-0.01 kcal/mol
TCAAGCACGTGGGGGT	-0.44 kcal/mol
TGTTACACGTGAAGAT	0.37 kcal/mol
TCAGACACGTGGTATG	-0.11 kcal/mol
TGGAACACGTGTTGGG	0.12 kcal/mol
GGTAGCACGTGGTACT	-0.1 kcal/mol
ATTAACACGTGTGAGT	-0.05 kcal/mol
AGAATCACGTGGTATG	0.1 kcal/mol
TATGGCACGTGAGAGG	0.09 kcal/mol
CTTATCACGTGTTGTT	0.21 kcal/mol
ATTGACACGTGAGCTG	0.08 kcal/mol
ATGTGCACGTGGTAGA	-0.12 kcal/mol
GAGAGCACGTGGCTAG	-0.03 kcal/mol
GGGGTCACGTGATTTA	0.31 kcal/mol
CGAGGCACGTGTGGGC	-0.16 kcal/mol
TATGTCACGTGCGGAG	0.04 kcal/mol
AATAACACGTGTTGTT	-0.03 kcal/mol
AATTTCACGTGGGTCG	0.26 kcal/mol
TGGAGCACGTGTGAAG	-0.02 kcal/mol
AATTACACGTGTTGGC	0.24 kcal/mol

Sequence	relative binding free energy
AATATCACGTGGGGGC	0.1 kcal/mol
TGGAGCACGTGTTTTT	0 kcal/mol
CTAGGCACGTGTGGGG	-0.11 kcal/mol
AATTTCACGTGTTGTT	0.31 kcal/mol
TTCAGCACGTGTGCGG	-0.12 kcal/mol
TATTTCACGTGAAGGG	0.42 kcal/mol
GATTGCACGTGGTAGA	0.06 kcal/mol
GGTTGCACGTGTTGCG	0.09 kcal/mol
GTTTCCACGTGGTGCT	0.07 kcal/mol
CATGGCACGTGGTTAT	-0.09 kcal/mol
GGGTTCACGTGGGGGG	0.24 kcal/mol
TGTGCCACGTGCGGGG	-0.14 kcal/mol
ACGGTCACGTGTTGGT	0.04 kcal/mol
AAGTACACGTGGGGAA	-0.06 kcal/mol
CTGGTCACGTGTTGTA	0.01 kcal/mol
GTGAACACGTGGGCAG	-0.19 kcal/mol
GTAACCACGTGTAGGG	-0.07 kcal/mol
TGTTGCACGTGGTGTG	0 kcal/mol
TTATTCACGTGGGATT	0.16 kcal/mol
TATCGCACGTGATGGG	0.06 kcal/mol
TGTGCCACGTGCAGTT	0.06 kcal/mol
GTGGGCACGTGCTTAT	-0.1 kcal/mol
TTTGGCACGTGATGGG	0.1 kcal/mol
CAATACACGTGTAGGT	0.04 kcal/mol
ATTATCACGTGTGGCT	0.07 kcal/mol
GGTATCACGTGTATAG	0.2 kcal/mol

Sequence	relative binding free energy
ATATTCACGTGGTTCA	-0.01 kcal/mol
TTGAGCACGTGATTCG	-0.05 kcal/mol
ACGGGCACGTGAGTTA	0.09 kcal/mol
AGAGTCACGTGAATAG	0.27 kcal/mol
GATGCCACGTGTGCGG	-0.07 kcal/mol
TTGAGCACGTGATCGT	-0.12 kcal/mol
GTTCTCACGTGCGGTG	0.17 kcal/mol
AGTGCCACGTGTGAGA	-0.02 kcal/mol
CGGAACACGTGGGGTA	-0.15 kcal/mol
TTGAGCACGTGATGCT	0.06 kcal/mol
TTGCTCACGTGCTTTT	0.13 kcal/mol
TTGGGCACGTGTAGGA	0 kcal/mol
TTCTCCACGTGGTTTT	0 kcal/mol
GGGGTCACGTGTTGAT	0.21 kcal/mol
ATCTTCACGTGGGCTT	0.4 kcal/mol
TGTTGCACGTGGTAGA	0.01 kcal/mol
TTGAGCACGTGGTGAT	-0.07 kcal/mol
TGGTGCACGTGACGCT	0.02 kcal/mol
TATATCACGTGTAAAT	0.23 kcal/mol
GTGTGCACGTGACATT	0.05 kcal/mol
TATATCACGTGTGCGA	0.18 kcal/mol
TATCTCACGTGTGAGG	0.22 kcal/mol
GTGGACACGTGGCATA	0.01 kcal/mol
CATCTCACGTGGTTGG	0.21 kcal/mol
CTTTTCACGTGTTATA	0.22 kcal/mol
CGTGTCACGTGTTGGT	0.14 kcal/mol

Sequence	relative binding free energy
TTCCTCACGTGGGGGA	0.09 kcal/mol
AGGTTCACGTGGGTAC	0.22 kcal/mol
GAGGGCACGTGGTGAG	-0.03 kcal/mol
TGTTCCACGTGGGTAG	-0.11 kcal/mol
TTTAGCACGTGTTGCG	0.03 kcal/mol
GAATTCACGTGAGGTT	0.38 kcal/mol
GAAAACACGTGAGGGG	0.16 kcal/mol
GTGGACACGTGTGTTG	0.08 kcal/mol
GGGAACACGTGTTATA	0.2 kcal/mol
GTTGGCACGTGATAGA	0.09 kcal/mol
GCTGGCACGTGATTGT	0.08 kcal/mol
GGGCACACGTGGTGAT	0.11 kcal/mol
CAATTCACGTGATTGG	0.51 kcal/mol
CTGAGCACGTGAGGGT	0.11 kcal/mol
GTAGGCACGTGGATGC	-0.11 kcal/mol
GGATCCACGTGTATGT	0.08 kcal/mol
TTTTGCACGTGTTACG	0.05 kcal/mol
TTCGGCACGTGGTGAT	-0.13 kcal/mol
GAGGGCACGTGTAAGT	0.13 kcal/mol
TGAAGCACGTGTGATT	0.05 kcal/mol
TGCTTCACGTGTATAT	0.29 kcal/mol
TTGTACACGTGGAAAG	0.09 kcal/mol
ACGTGCACGTGGTGAT	-0.26 kcal/mol
CATGGCACGTGGTTAA	-0.13 kcal/mol
GGCTTCACGTGGCTGG	0.18 kcal/mol
AGTGCCACGTGGGTGA	-0.35 kcal/mol

Sequence	relative binding free energy
GTGTGCACGTGACTGT	0.11 kcal/mol
TTCTACACGTGAAGGG	0.17 kcal/mol
ATCATCACGTGATAGT	0.23 kcal/mol
TAGAGCACGTGGTGGC	-0.16 kcal/mol
TGGGGCACGTGTCTAA	-0.06 kcal/mol
TTAGGCACGTGCGGTA	-0.07 kcal/mol
AGGGTCACGTGGTTGC	0.19 kcal/mol
TATATCACGTGGGGCG	0.02 kcal/mol
TGCGTCACGTGGGAAG	-0.09 kcal/mol
TTTTGCACGTGCTTCG	0 kcal/mol
GGTATCACGTGGTCGT	0.05 kcal/mol
GGGAACACGTGTGGCT	0.11 kcal/mol
TGAGACACGTGTTGGG	0.02 kcal/mol
TTTATCACGTGGTATG	0.07 kcal/mol
GGGTTCACGTGCGTGC	0.17 kcal/mol
AAGGACACGTGGTTTT	-0.04 kcal/mol
AGGTTCACGTGGAGAT	0.08 kcal/mol
CTTTACACGTGGTGGC	0.14 kcal/mol
AGGTCCACGTGTAATG	0.07 kcal/mol
GGACGCACGTGGCGTG	-0.17 kcal/mol
GTTATCACGTGATTCG	0.33 kcal/mol
ATAGGCACGTGTTCGT	-0.27 kcal/mol
TGTGCCACGTGAATGG	0.1 kcal/mol
TTGTCCACGTGGACGT	0.03 kcal/mol
AAGGTCACGTGCAGTG	0.05 kcal/mol
AAAATCACGTGAGGAT	0.39 kcal/mol

Sequence	relative binding free energy
GTGATCACGTGGTAGG	0.07 kcal/mol
GGGCGCACGTGGAGGA	-0.13 kcal/mol
CGTATCACGTGTATGG	0.08 kcal/mol
TCTGTCACGTGTAGCG	0.19 kcal/mol
GGTGTCACGTGTACAA	0.27 kcal/mol
TGAACCACGTGTGTGG	-0.01 kcal/mol
GCGTGCACGTGTGTAG	0.07 kcal/mol
GTTGTCACGTGTGAGG	0.22 kcal/mol
TTGGACACGTGAGGAT	0.28 kcal/mol
TGGATCACGTGTTTCT	0.16 kcal/mol
TCGTTCACGTGGAGCT	0.29 kcal/mol
AGATGCACGTGTGGAG	0.15 kcal/mol
GGAGTCACGTGAATTA	0.27 kcal/mol
TTCTTCACGTGTTGCA	0.27 kcal/mol
CGTGGCACGTGTAAAT	0.08 kcal/mol
TTAGTCACGTGATCAG	0.07 kcal/mol
GGTATCACGTGGCGTC	0.08 kcal/mol
AGTTGCACGTGGGTGT	-0.12 kcal/mol
AAGTTCACGTGGCATG	0.11 kcal/mol
AGTAACACGTGGTGAA	-0.09 kcal/mol
ACGGTCACGTGTGGTC	0.14 kcal/mol
GTGGACACGTGTTGGG	0.16 kcal/mol
TCGAACACGTGTTGTG	-0.08 kcal/mol
GGGGGCACGTGGTGGC	-0.12 kcal/mol
GATGGCACGTGTTATA	-0.1 kcal/mol
TTATGCACGTGCAAGT	0.04 kcal/mol

Sequence	relative binding free energy
TGGTGCACGTGCAGAG	-0.13 kcal/mol
TTCGACACGTGTAGTG	0.09 kcal/mol
ATTAGCACGTGTCAGT	0.06 kcal/mol
TGGGCCACGTGGGAGT	-0.2 kcal/mol
TCGTGCACGTGGTGGA	0 kcal/mol
TTGGGCACGTGGATAA	-0.07 kcal/mol
TGAGTCACGTGTGTGT	0.15 kcal/mol
ATAGACACGTGCATGG	0.11 kcal/mol
ACTTGCACGTGTATTT	0.05 kcal/mol
TGGAGCACGTGTTTAC	0.05 kcal/mol
TATGGCACGTGTAGCG	-0.1 kcal/mol
ATAGTCACGTGGCTGT	0.03 kcal/mol
GCGAGCACGTGTTGTG	0.04 kcal/mol
TGGGTCACGTGCTTTA	0.12 kcal/mol
TATTTCACGTGACAGG	0.32 kcal/mol
GAGTCCACGTGGTAGG	0.11 kcal/mol
TGATTCACGTGGAGAA	0.34 kcal/mol
GTTATCACGTGTGCCG	0.34 kcal/mol
AGGGGCACGTGAGGGT	0.14 kcal/mol
TATGTCACGTGATCGG	0.26 kcal/mol
CTGGCCACGTGGGGTG	-0.21 kcal/mol
TGTAACACGTGGGGCT	-0.09 kcal/mol
ATTGCCACGTGGGGGC	-0.19 kcal/mol
GTTCTCACGTGTTAGA	0.38 kcal/mol
GGAATCACGTGGTAGT	0.25 kcal/mol
TAAGTCACGTGATGAG	0.16 kcal/mol

Sequence	relative binding free energy
TTACGCACGTGGGGTT	-0.24 kcal/mol
ATGTACACGTGAACGG	0.31 kcal/mol
GTACACACGTGTGGTT	-0.01 kcal/mol
GTCTTCACGTGGTATA	0.37 kcal/mol
GGTTTCACGTGAGGAT	0.33 kcal/mol
GTGAACACGTGCAGTG	0.08 kcal/mol
ATATACACGTGCGGGT	-0.08 kcal/mol
AATTGCACGTGTTAAA	0.08 kcal/mol
AAGGGCACGTGTGGGC	-0.11 kcal/mol
CTAGGCACGTGGTGTG	-0.35 kcal/mol
AGGTACACGTGGGGGC	0 kcal/mol
TACGTCACGTGCGTGT	-0.06 kcal/mol
AGGGCCACGTGTTTAT	-0.03 kcal/mol
GGAGACACGTGTGTTT	0.07 kcal/mol
TGATTCACGTGTTTAG	0.33 kcal/mol
TTGGGCACGTGACTTA	-0.03 kcal/mol
AGGGGCACGTGGGTTT	-0.24 kcal/mol
GAGTACACGTGCGGGT	0.04 kcal/mol
TTAGTCACGTGGGCGC	-0.12 kcal/mol
TTGGACACGTGTCTTT	0.1 kcal/mol
GGTGGCACGTGGCGGC	-0.19 kcal/mol
GCTGGCACGTGGTAGG	-0.01 kcal/mol
TTCTTCACGTGTTATC	0.29 kcal/mol
CGTGGCACGTGAGGCA	0.17 kcal/mol
TTATTCACGTGTTGCT	0.23 kcal/mol
GGACTCACGTGGCGGG	0.24 kcal/mol

Sequence	relative binding free energy
GGGTTCACGTGTCGGC	0.39 kcal/mol
GGTTACACGTGAGTGT	0.35 kcal/mol
TAATTCACGTGGCAGG	0.1 kcal/mol
GGCTTCACGTGCATGG	0.37 kcal/mol
TAGTCCACGTGGTGGA	0.02 kcal/mol
ATTTACACGTGGTTCG	-0.01 kcal/mol
AAGGGCACGTGCCGGT	-0.25 kcal/mol
TTATACACGTGCTTTA	-0.01 kcal/mol
TTCGGCACGTGGATTT	0.11 kcal/mol
TGGGACACGTGCGCGG	-0.08 kcal/mol
AATTTCACGTGTCATG	0.25 kcal/mol
CGTGACACGTGTGATG	-0.01 kcal/mol
TTGTTCACGTGGGAAT	0.24 kcal/mol
TAGGACACGTGTCAGG	0.04 kcal/mol
GATAGCACGTGTTTGA	-0.05 kcal/mol
AGTGTCACGTGCTTTA	-0.12 kcal/mol
TATTTCACGTGCTTGT	0.14 kcal/mol
GGGAGCACGTGGGCAC	-0.11 kcal/mol
TGTCACACGTGGAGTT	-0.02 kcal/mol
TTACGCACGTGCGTGT	-0.13 kcal/mol
GGGTTCACGTGGGCTT	0.27 kcal/mol
AGTATCACGTGGAAGG	0.16 kcal/mol
